Results: patent publication US20080102065A1 (published 2008)

B1: Mxb 2 (clone 2 scFv-Fc protein) (Fc fusion)
chain: EVQLVQSGGGLVQPGGSLRLSCAASGFTFSSYWMSWVRQAPGKGLEWVANIKPDGSEKYYVDSVKGRFTISRDNAKNSVYLQMNSLRAEDTAVYYCARVSRGGSYSDWGQGTLVTVSSGGGGSGGGGSGGGGSAQSVLTQPPSASGSPGQSVTISCTGTSSDVGGYNYVSWYQQHPGKAPKLMIYEVSKRPSGVPDRFSGSKSGNTASLTVSGLQPEDEADYYCSSYAGRNWVFGGGTQLTVLGAAA[letters of human IgG1 Fc left out]
notes: scFv-Fc (maxibody): VH, linker, VL, human IgG1 Fc
B2: Mxb 29 (clone 29 scFv-Fc protein) (Fc fusion)
VH: [letters of about 100 residues left out]GGHMTTVTRDAFDIWGQGTMVTVSA
VL: SSELTQDPAVSVALGQTIRITCQGDSLRYYYATWYQQKPGQAPILVIYGQNNRPSGVPDRFSGSSSGNTASLTITGAQAEDEADYYCGTWDSSVSASWVFGGGTKVTVL
notes: Tested as scFv-Fc (maxibody) with an Fc derived from human IgG1
B3: Mxb 30 (clone 30 scFv-Fc protein) (Fc fusion)
chain: QVQLQESGPGLVKPSQTLSLTCAISGDSVSSNSAAWNWIRQSPSRGLEWLGRTYYRSKWYNDYAVSVKSRMTIKADTSKNQFSLQLNSVTPEDTAVYYCARDEGPLDYWGQGTLVTVSAGGGGSGGGGSGGGGSGAPQAVLTQPSSVSGAPGQRVTISCTGSSSNLGTGYDVHWYQQLPGTAPKLLIYGNSNRPSGVPDRFSGSKSDTSGLLAITGLQAEDEATYYCQSYDFSLSAMVFGGGTKVTVLAAA[letters of human IgG1 Fc left out]
notes: scFv-Fc (maxibody) with human IgG1 Fc
B4: Mxb 5 (clone 5 scFv-Fc protein) (Fc fusion)
chain: EVQLVESGGGLVQPGGSLRLSCAASGFTFSSYWMSWVRQAPGKGLEWVANIKPDGSEKYYVDSVKGRFTISRDNAKNSVYLQMNSLRAEDTAVYYCARVSRGGSYSDWGQGTLVTVSSGGGGSGGGGSGGGGSAQSALTQPASVSGSPGQSITISCTGTSSDVGGYIYVSWYQQHPGKAPKLMIYDVSRRPSGISDRFSGSKSGNTASLTISGLQAEDEADYYCNSYTTLSTWLFGGGTKVTVLGAAA[letters of human IgG1 Fc left out]
notes: as for B1
B5: Mxb 7 (clone 7 scFv-Fc protein) (Fc fusion)
chain: EVQLVQSGGGLVQPGGSLRLSCAASGFTFSSYWMSWVRQAPGKGLEWVANIKPDGSEKYYVDSVKGRFTISRDNAKNSVYLQMNSLRAEDTAVYYCARVSRGGSYSDWGKGTLVTVSSGGGGSGGGGSGGGGSAQSALTQPASVSGSPGQSIIISCTGTRSDIGGYNYVSWYQHHPGRAPKLIIFDVNNRPSGVSHRFSGSKSGNTASLTISGLQAEDEADYYCNSFTDSRTWLFGGGTKLTVLGAAA[letters of human IgG1 Fc left out]
notes: as for B1
B6: Mxb 10 (clone 10 scFv-Fc protein) (Fc fusion)
chain: [letters of about 100 residues left out]DRVAVAGKGSYYFDSWGRGTTVTVSSGGGGSGGGGSGGGGSAQSVLTQPPSVSEAPGQRVTIACSGSSSNIGNNAVSWYQQLPGKAPTLLIYYDNLLPSGVSDRFSGSKSGTSASLAISGLQSEDEADYYCAAWDDSLNDWVFGGGTKVTVLGAAA[letters of human IgG1 Fc left out]
notes: as for B1

Molecular target: T1, huEpoR expressed on the cell surface (UT-7 cells) (human, UniProt P19235 25-508)
T1 sequence (looked up): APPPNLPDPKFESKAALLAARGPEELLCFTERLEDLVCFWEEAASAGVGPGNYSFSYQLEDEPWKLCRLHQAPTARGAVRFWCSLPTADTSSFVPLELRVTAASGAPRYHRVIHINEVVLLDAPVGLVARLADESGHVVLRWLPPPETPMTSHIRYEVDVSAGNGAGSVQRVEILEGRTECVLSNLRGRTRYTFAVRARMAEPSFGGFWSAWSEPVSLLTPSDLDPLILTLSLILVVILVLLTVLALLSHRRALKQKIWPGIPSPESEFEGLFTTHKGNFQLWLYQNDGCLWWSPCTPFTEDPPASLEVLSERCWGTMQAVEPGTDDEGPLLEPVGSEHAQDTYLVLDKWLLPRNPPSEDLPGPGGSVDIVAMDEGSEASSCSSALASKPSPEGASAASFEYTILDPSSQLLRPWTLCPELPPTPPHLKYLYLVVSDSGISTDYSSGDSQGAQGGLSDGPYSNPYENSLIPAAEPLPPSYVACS
Test: cell-based or functional assay

Binder	Average EC50 (nM), UT-7-luciferase (STAT5 reporter) assay	Ratio (EC50 of Epo / EC50 of the scFv-Fc), UT-7-luciferase assay
B1	0.604 nM	0.016
B2	1.52 nM	0.006
B3	0.67 nM	0.014
B4	0.791 nM	0.012
B5	0.468 nM	0.02

Molecular target: T2, mouse EpoR (muEpoR) (mouse, UniProt P14753 25-249, limits assumed)
T2 sequence (looked up): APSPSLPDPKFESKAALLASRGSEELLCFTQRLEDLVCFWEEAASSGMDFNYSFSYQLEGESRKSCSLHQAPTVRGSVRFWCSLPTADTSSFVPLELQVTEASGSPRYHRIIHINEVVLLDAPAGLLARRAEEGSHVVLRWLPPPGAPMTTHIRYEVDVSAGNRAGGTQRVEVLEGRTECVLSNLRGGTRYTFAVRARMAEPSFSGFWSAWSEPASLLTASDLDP
Test: ELISA on coated muEpoR, scFv-Fc at 5 µg/ml (Example 17)

Binder	binding result
B2	no binding (tested: 5 µg/ml)

Molecular target: T3, huEpoR protein (soluble human erythropoietin receptor) (human, UniProt P19235 25-250, limits assumed)
T3 construct: also called soluble huEpoR; biotinylated huEpoR
T3 sequence (looked up): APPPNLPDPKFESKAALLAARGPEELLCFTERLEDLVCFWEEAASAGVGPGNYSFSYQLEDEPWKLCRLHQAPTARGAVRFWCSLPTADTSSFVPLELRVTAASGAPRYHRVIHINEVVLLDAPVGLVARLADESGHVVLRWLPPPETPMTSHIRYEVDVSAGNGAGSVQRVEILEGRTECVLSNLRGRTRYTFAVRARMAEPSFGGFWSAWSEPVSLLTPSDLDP
Test: SPR, BIAcore 3000; scFv-Fc captured on anti-human Fc CM4 chip, huEpoR as analyte

Binder	Kd	koff	kon
B1	334 nM	0.136 s⁻¹	410000 M⁻¹ s⁻¹
B3	14900 nM	0.274 s⁻¹	18000 M⁻¹ s⁻¹
B4	217 nM	0.0612 s⁻¹	280000 M⁻¹ s⁻¹
B5	271 nM	0.0541 s⁻¹	200000 M⁻¹ s⁻¹

Molecular target: T3, huEpoR protein (soluble human …)
Test: SPR, Biacore T100; scFv-Fc captured on anti-human IgG Fc CM5 chip, EpoR as analyte; 1:1 fit;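 note: measured at 25 °C in HBS-EP buffer with 0.1 mg/ml BSA, flowed at 50 µl/min, 1 min association then dissociation (10 min human, 5 min cyno EpoR)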

Binder	Kd	koff	kon
B2	487 nM	0.0629 s⁻¹	129000 M⁻¹ s⁻¹

Molecular target: T4, cynomolgus monkey EpoR (cynoEpoR) (cynomolgus monkey, UniProt A0A2K5WKK4 25-250)
T4 construct: Soluble protein (coated in ELISA, analyte in SPR)
T4 sequence: T3 sequence (looked up) with A19V, G47A, G49S, G51D, Q58H, V112I, S135G, V138I, T148A
Test: as above

Binder	Kd	koff	kon
B2	265 nM	0.0504 s⁻¹	190000 M⁻¹ s⁻¹
B3	2310 nM	0.485 s⁻¹	211000 M⁻¹ s⁻¹
B4	140 nM	0.0611 s⁻¹	437000 M⁻¹ s⁻¹
B6	6.83 nM	0.00107 s⁻¹	156000 M⁻¹ s⁻¹

Molecular target: T5, biotinylated mouse EpoR-Fc protein (muEpoR-Fc) (mouse, UniProt P14753 25-249, limits assumed, biotinylated)
T5 construct: also called mouse EpoR (muEpoR); not shown: Fc part
T5 sequence (looked up): T2 sequence (looked up)
Test: ELISA, antibody coated at 1 µg/ml, biotinylated muEpoR-Fc at 5 µg/ml, streptavidin-HRP

Binder	binding result
B1	binds
B4	binds
B5	binds
B6	binds

Positions count from the first letter of the chain named.
